# The whole screen tested about 310,000 compounds, of which about 14,000 (4.5%) showed an effect of 50% or more. The effect is printed as a negative number. This is one part of the list.
# Biological target: human ether-à-go-go-related gene (hERG) potassium channel (human, UniProt Q12809)
# Assay: primary screen, population patch clamp on CHO cells stably expressing hERG
# 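Note: peak tail current of the secondary pulse compared with the same well before compound.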
# human ether-à-go-go-related gene (hERG) potassium channel, sequence (Q12809 whole entry, looked up): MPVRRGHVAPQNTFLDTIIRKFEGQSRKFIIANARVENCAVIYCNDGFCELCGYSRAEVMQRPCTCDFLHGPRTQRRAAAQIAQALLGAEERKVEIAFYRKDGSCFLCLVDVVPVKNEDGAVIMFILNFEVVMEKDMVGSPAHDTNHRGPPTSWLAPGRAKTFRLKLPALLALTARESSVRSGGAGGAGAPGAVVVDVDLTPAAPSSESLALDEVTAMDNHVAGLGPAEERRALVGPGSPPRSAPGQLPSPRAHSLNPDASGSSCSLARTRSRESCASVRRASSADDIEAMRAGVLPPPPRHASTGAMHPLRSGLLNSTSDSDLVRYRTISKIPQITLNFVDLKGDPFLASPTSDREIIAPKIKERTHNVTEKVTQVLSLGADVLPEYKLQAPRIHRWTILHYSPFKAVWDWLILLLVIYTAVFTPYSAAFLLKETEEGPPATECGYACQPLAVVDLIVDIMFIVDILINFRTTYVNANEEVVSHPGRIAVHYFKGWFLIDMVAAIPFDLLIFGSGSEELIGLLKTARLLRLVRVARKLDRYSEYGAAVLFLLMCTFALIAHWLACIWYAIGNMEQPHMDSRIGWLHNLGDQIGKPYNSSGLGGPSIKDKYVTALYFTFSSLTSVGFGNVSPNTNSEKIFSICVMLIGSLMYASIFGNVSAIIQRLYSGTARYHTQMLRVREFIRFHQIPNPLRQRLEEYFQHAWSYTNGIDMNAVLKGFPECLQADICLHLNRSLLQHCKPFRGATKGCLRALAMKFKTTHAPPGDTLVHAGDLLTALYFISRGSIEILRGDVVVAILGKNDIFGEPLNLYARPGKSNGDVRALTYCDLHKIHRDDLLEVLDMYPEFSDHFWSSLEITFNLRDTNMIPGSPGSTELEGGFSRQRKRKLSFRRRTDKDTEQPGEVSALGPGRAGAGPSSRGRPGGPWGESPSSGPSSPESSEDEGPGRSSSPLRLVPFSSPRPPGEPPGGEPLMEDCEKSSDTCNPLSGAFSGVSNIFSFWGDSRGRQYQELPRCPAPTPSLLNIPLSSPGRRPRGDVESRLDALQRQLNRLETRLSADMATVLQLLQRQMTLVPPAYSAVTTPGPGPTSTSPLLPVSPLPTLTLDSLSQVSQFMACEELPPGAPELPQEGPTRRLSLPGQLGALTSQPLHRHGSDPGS
row,SMILES,"hERG current change (%, negative = inhibition) at 10uM [%]"
1,COc1cc(C(=O)NCCNC(=O)c2cc(OC)c(C)c(OC)c2)cc(OC)c1C,18.6
2,COc1ccc(OC)c(C2C3=C(CC(C)(C)CC3=O)Nc3nnnn32)c1 (stereo not shown),-1.49
3,CC1(C)Cc2c(sc(NC(=O)c3ccco3)c2C#N)C(C)(C)N1,-10.4
4,CCN(CC)S(=O)(=O)c1ccc(N/N=C/c2cc(OC)c(OC)cc2OC)nc1,4.61
5,N#CCCn1cc(/C=N/O)c(-c2ccc(F)cc2)n1,-7.67
6,N=c1c(C(=O)NC2CCCCC2)cc2c(=O)n3ccccc3nc2n1Cc1ccccc1,-69.8
7,CCOC(=O)c1cnc2ccc(OC)cc2c1Nc1ccc(N2CCN(C)CC2)cc1,-18.2
8,COc1ccccc1N(CC(=O)N1CCN(c2ccc(F)cc2)CC1)S(=O)(=O)c1ccc(C)cc1,4.68
9,O=C(NN1C(=O)c2cc(Br)ccc2NC1c1ccccc1Cl)c1ccncc1 (stereo not shown),8.83
10,CC(Oc1ccc2c3c(c(=O)oc2c1)CCCC3)C(=O)NCc1ccccn1 (stereo not shown),-4.72
11,O=C(CSc1nnc(-c2ccccc2)n1-c1ccc(Cl)cc1)NNC(=S)Nc1ccccc1,13.5
12,CN1CCN(S(=O)(=O)c2ccc(Oc3ccc(F)cc3Br)nc2)CC1,-8.56
13,O=C(c1ccccc1NS(=O)(=O)c1ccccc1[N+](=O)[O-])N1CCCC1,15.1
14,COC(=O)CSc1ccc2nnc(CCNS(=O)(=O)c3ccccc3)n2n1,24.3
15,COc1ccc(N(CN2C(=O)C3CCCCC3C2=O)C(=O)c2ccco2)cc1 (stereo not shown),-9.31
16,CC(C)Cc1cc(C(=O)NCc2cccs2)no1,-16.6
17,Cc1ccc(S(=O)(=O)N2CCN(C3CCC(c4ccccc4)CC3)CC2)cc1 (stereo not shown),-0.849
18,Cl.O=C(O)CC1(CC(=O)N2CCN(CCO)CC2)CCCC1,15.9
19,CC(C)CC12CN3CCN(CC(C3)/C1=N/O)C2,0.256
20,CN1CCN(c2ccc(NC(=O)c3cccc(S(=O)(=O)N4CCCC4)c3)cc2)CC1,5.61
21,COC(=O)/C(=C/Nc1cccc2ccccc12)[N+](=O)[O-],-10.4
22,O=C(Nc1ccc(F)cc1)c1cccc2ccccc12,10.3
23,O=C(NCC(=O)N(Cc1ccco1)C(C(=O)NC1CCCCC1)c1ccncc1)c1cccs1 (stereo not shown),-22
24,COc1ccc(/C=C/C(=O)Oc2ccc(/C=N/NC(=O)COc3c(C)cccc3C)cc2)cc1,14.5
25,CN1CCN(C(=O)c2cc3c(=O)n4ccccc4nc3s2)CC1,-2.57
26,COc1cc(C(=O)Nc2ccc(S(=O)(=O)N3CCCCC3C)cc2)cc(OC)c1OC (stereo not shown),-26
27,Cc1ccc(N2/C(=N/c3nc(C)cc(C)n3)NC(=O)CC2C(=O)O)cc1 (stereo not shown),-4.08
28,O=C(NCc1ccccc1)c1cnc(Cl)c(Cl)c1,0.347

row,SMILES,"hERG current change (%, negative = inhibition) at 10uM [%]"
1,CC(C)COc1ccc(C(=O)Nc2scc(-c3ccc(Cl)cc3Cl)c2C(N)=O)cc1,10.5
2,O=C(Cn1ncc2c1-c1ccccc1OC2)N1CCN(Cc2ccc3c(c2)OCO3)CC1,-61.3
3,O=C(Nc1ccc(C(=O)N2CCCC2)cc1)c1cccc(C(F)(F)F)c1,8.2
4,CCOc1ccc(C(=O)NCCCN2CCOCC2)cc1OCC,27
5,O=C(CCCc1nc(-c2ccccc2)no1)N1CCOCC1,-5.34
6,COc1ccccc1NC(=O)CSC1=NCCN1.Cl,36.3
7,CCCCCCNC(=O)C(=O)NCCc1ccc(Cl)cc1,13.8
8,COC(=O)Cc1ccc(NC(=S)NCc2cccc(OC)c2)cc1,2.95
9,CNC(=O)C1CC(=O)N/C(=N/N=C(\C)c2cccs2)S1 (stereo not shown),17.3
10,CC(=O)Oc1c(-c2ccc(Br)o2)oc2ccccc2c1=O,7.66
11,Cc1ccc(C(C)C)c(OCC(=O)NC(=S)Nc2ccccc2N2CCOCC2)c1,13.1
12,O=S(=O)(N1CCOCC1)n1nnc2ccccc21,6.66
13,O=c1c2c(nc3nc(COc4ccccc4)[nH]n13)CCC2,-3.16
14,CN(C(=O)COC(=O)c1c2c(nc3ccccc13)/C(=C/c1cccc([N+](=O)[O-])c1)CCC2)C1CCS(=O)(=O)C1 (stereo not shown),2.15
15,COc1ccc(O)c(C2=Nc3ccccc3N=C(c3ccco3)C2)c1,6.14
16,C=CCn1c(Cc2c(C)[nH]c3ccccc23)nnc1SCC(=O)NCc1ccc(F)cc1,-26.8
17,COc1cccc(Nc2nc3ccccc3n2C(C)C)c1,24.1
18,CCN(CC)C(=O)CSc1nc(N)c(C#N)c(-c2cccs2)c1C#N,15.5
19,COc1ccc(NC(=O)CSc2ncccc2C(=O)OC(C)C)cc1OC,2.51
20,C/C(=N/NS(=O)(=O)c1ccc(C)c(C)c1)c1ccncc1,11.5
21,COc1ccccc1N1CCN(C(=O)CSc2ccc3c(C)cc(C)nc3n2)CC1,-19.7
22,CCC(=O)Nc1ccc(Cl)c(NC(=S)NC(=O)c2cc3ccccc3o2)c1,-3.18
23,CC1CCN(CC(O)COc2ccc(OCC(O)CN3CCC(C)CC3)cc2)CC1 (stereo not shown),3.84
24,CCOc1cc(C(N)=O)cc(Br)c1OCc1ccccc1,-7.96
25,CCOC(=O)c1c(/N=C/N(C)C)sc(C(=O)OC)c1C,0.173
26,Cc1ccc(S(=O)(=O)N/N=C\c2ccc(Cl)c([N+](=O)[O-])c2)cc1,18.4
27,CCC(=O)N1CCc2cc(OC)c(OC)cc2C1COc1ccc(F)cc1 (stereo not shown),-22.3

# From article PMC4336329 (PLoS ONE, 2015)
